Laboratory results from PubChem BioAssay AID504333 (National Center for Advancing Translational Sciences (NCATS), 2011).
Values joined by “and” are separate entries in the source; they are usually repeats but may differ in a detail not shown here. Identical values can stand only once. In all, about 360,000 compounds went through this assay and about 16,000 (4.4%) were called active. This list was built around the results that the source calls inconclusive (neither active nor inactive); the mix of calls is not that of the screen. Calls come from the whole dose curve; as a rule, active = well fitted inhibition curve with a large enough effect; inconclusive = small, poorly fitted or top-dose-only effect; inactive = no such curve, though single readings can be large or run the other way. Potencies of inconclusive entries are doubtful fits and often do not repeat.

Each molecule was assayed against Bromodomain adjacent to zinc finger domain protein 2B (Homo sapiens) (UniProt Q9UIF8) (assay: qHTS Assay for Inhibitors of BAZ2B). Details: AlphaScreen BAZ2B-H3K14Ac peptide displacement; series mostly up to 114 µM.
In short: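 Compounds, titrated to a top concentration of 110 uM, were incubated 30 min at room temperature with preformed BAZ2B/acetyl-K14 H3 peptide complex (50 nM each). Proximity signal was measured by AlphaScreen after 20 min with beads.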
Note: nearly all actives have a fitted effect of over 60% in size.
Potency is the fitted concentration of half-maximal effect; tags give direction and shape of the fitted curve.

UniProt Q9UIF8, sequence (Q9UIF8 whole entry, looked up, the tested form may be a part): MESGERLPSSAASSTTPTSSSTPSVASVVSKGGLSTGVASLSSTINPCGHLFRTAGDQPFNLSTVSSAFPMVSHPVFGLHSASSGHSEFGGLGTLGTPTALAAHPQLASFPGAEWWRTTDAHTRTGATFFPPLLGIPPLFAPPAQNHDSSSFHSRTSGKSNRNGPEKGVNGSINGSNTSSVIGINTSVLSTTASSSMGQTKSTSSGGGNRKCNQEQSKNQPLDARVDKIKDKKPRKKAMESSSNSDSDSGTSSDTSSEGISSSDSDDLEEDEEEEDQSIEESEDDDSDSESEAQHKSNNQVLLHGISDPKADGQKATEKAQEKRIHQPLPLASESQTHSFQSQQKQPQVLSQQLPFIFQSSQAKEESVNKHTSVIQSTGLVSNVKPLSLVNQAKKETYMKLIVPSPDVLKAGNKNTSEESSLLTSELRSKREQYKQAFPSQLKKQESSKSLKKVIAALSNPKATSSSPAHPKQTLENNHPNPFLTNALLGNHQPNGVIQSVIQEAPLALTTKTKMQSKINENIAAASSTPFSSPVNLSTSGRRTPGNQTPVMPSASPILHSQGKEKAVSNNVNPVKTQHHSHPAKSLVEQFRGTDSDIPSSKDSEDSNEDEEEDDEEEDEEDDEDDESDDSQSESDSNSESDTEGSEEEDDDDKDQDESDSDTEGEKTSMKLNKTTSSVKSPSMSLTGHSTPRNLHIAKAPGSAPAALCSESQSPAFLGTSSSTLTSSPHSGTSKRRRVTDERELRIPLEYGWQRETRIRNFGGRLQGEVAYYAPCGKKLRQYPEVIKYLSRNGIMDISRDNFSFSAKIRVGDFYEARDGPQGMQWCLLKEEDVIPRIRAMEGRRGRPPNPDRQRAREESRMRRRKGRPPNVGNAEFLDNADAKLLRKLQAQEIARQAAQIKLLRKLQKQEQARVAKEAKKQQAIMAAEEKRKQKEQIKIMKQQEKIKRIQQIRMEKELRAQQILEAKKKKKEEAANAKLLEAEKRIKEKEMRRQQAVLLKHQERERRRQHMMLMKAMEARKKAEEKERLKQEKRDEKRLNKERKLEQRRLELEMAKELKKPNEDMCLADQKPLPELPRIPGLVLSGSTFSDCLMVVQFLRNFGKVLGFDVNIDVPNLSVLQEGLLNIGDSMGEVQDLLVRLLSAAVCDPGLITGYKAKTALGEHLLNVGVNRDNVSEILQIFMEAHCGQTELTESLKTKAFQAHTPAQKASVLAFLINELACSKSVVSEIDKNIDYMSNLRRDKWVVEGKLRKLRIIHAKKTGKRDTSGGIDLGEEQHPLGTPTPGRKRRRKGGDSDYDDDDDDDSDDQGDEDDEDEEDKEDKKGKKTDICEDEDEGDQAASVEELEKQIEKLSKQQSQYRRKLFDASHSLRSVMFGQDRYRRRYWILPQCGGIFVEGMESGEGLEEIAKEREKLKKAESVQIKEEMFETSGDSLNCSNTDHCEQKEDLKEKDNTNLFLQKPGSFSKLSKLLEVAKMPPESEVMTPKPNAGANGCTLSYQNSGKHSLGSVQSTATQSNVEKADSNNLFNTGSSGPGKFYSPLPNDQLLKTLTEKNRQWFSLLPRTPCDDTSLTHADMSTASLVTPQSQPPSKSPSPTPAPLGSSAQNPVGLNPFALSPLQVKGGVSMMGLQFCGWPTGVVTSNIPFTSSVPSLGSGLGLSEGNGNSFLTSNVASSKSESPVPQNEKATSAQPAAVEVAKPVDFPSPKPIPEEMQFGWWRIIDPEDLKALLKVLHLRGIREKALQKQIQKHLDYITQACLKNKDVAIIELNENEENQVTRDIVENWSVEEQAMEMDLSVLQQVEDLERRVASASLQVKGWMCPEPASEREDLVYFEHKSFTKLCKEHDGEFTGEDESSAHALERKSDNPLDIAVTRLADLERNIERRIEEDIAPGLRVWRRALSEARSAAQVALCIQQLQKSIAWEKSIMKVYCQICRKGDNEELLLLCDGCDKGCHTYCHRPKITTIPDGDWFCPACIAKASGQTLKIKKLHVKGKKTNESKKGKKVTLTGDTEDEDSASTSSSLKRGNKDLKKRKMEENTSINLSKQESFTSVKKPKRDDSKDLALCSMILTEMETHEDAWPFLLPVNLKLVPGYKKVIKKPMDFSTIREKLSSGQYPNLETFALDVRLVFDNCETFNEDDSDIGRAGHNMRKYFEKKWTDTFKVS

SMILES	Potency
N=c1c2c(ncn1Cc1ccco1)Oc1cc(O)ccc1C2c1ccccc1 (stereo not given)	inactive
O=C(CSc1nnc(-c2cccnc2)n1-c1ccc(SC(F)F)cc1)N1CCCc2ccccc21	inconclusive: 79.4 µM [inhibitor, single point]
CCc1cccc(NC(=O)Cn2nc(-c3ccc(OC)cc3)ccc2=O)c1	inactive
COc1cccc(Cn2cccc(NC(=O)NC3CCCCC3)c2=O)c1	inconclusive: 50.1 µM [inhibitor, partial curve]
O=C(Cc1cccs1)Nn1c(Cc2cccs2)nc2ccccc2c1=O	inconclusive: 89.1 µM [inhibitor, single point]
Cc1cccc(C)c1Nc1sc(C(=O)c2ccccc2)c(N)c1C(=O)Nc1ccc(F)cc1	inconclusive: 39.8 µM [inhibitor, partial curve]
Cc1nc2ccc(C(=O)O)cc2c2c1CC(CN)O2 (stereo not given)	inactive
C=C(C)CCOC(=O)C(CC(=O)O)NCc1ccco1 (stereo not given)	active: 35.5 µM
O=C(Nc1ccc(C(F)(F)F)cc1)C1CCCN(c2cnccn2)C1 (stereo not given)	inactive
CNc1cc(N2CCN(S(=O)(=O)N(C)C)CC2)ccc1[N+](=O)[O-]	inconclusive: 79.4 µM [inhibitor, single point]
CCNc1sc(C(=O)c2cccs2)c(N)c1C#N	inactive
CCCn1c2ccccc2c2nnc(SCC(=O)Nc3ncccn3)nc21	inconclusive: 89.1 µM [inhibitor, single point]
COc1cc2c(cc1OC)C(c1ccccc1)N(C(=O)c1ccccc1)CC2 (stereo not given)	inconclusive: 79.4 µM [inhibitor, single point]
COc1cccc(NC(=S)/C(=C(\[O-])c2cc(C)n(-c3ccccc3F)c2C)[n+]2ccc(N(C)C)cc2)c1	active: 39.8 µM
Cc1ccc(-c2onc3ccc(C(=O)O)cc23)cc1	inactive
CCN(CC)C(=S)Sc1c(-c2ccccc2)c2cc(Cl)ccc2[nH]c1=O	inconclusive: 79.4 µM [inhibitor, single point]
COc1cccc(N2CCN(c3ccc4nnc(CCC(=O)Nc5ccccc5OC)n4n3)CC2)c1	inconclusive: 56.2 µM [inhibitor, partial curve, poor fit]
COc1cccc(OC)c1C(=O)Nc1ccc(N2CCCC2)cc1	inconclusive: 56.2 µM [inhibitor, partial curve]
Cn1c(=O)c2cn3c(c2n(C)c1=O)C(c1ccccc1)CC(c1ccccc1)=N3 (stereo not given)	inconclusive: 89.1 µM [inhibitor, single point]
CCOCCN1CCN(C(=O)CN2CCCC2=O)CC1	active: 89.1 µM
CCOC(=O)C(C)Oc1cccc2c(=O)n(CC(=O)NCc3ccc(F)cc3)ccc12 (stereo not given)	inactive
COc1cccc(C2c3[nH]c4ccccc4c3CCN2Cc2cccc(C)n2)c1 (stereo not given)	inconclusive: 35.5 µM [inhibitor, partial curve]
Cn1nc(-c2ccc(C(=O)Nc3ccc(F)cc3)cc2)c2ccccc2c1=O	inconclusive: 89.1 µM [inhibitor, single point] and inconclusive: 50.1 µM [inhibitor, partial curve]

SMILES	Potency
NC(N)=N/N=C/c1ccc(OCc2ccc(Cl)cc2Cl)cc1	inconclusive: 28.2 µM [inhibitor, single point]
Cn1cc(C(=O)c2ccc(Cl)cc2Cl)cc1C(=O)N/N=C(\N)COc1ccc(Cl)cc1Cl	inconclusive: 28.2 µM [inhibitor, full curve, poor fit]
COc1ccc(CNCc2cccc(C)c2)cc1	inconclusive: 89.1 µM [inhibitor, single point]
CCNCCNC(=O)c1c(O)c2ccccc2n(CC)c1=O	inactive
O=C(c1cccc([N+](=O)[O-])c1)N1CCN(C/C=C/c2ccccc2)CC1	inactive
CCCCOc1ccccc1C(=O)N(Cc1ccc(C)o1)C1CCS(=O)(=O)C1 (stereo not given)	inconclusive: 89.1 µM [inhibitor, single point] and inconclusive: 70.8 µM [inhibitor, single point]
O=C(O)CSc1c2c(nc3cc(C(=O)Nc4ccc(F)c(Cl)c4)ccc13)CCC2	active: 79.4 µM
COc1ccc(Nc2ncc3c(n2)CCN(Cc2cc(Br)cs2)C3)c(OC)c1	inconclusive: 14.1 µM [inhibitor, full curve]
CCN1C(=O)[C@H]2[C@@H](c3ccc(-c4ccc(F)cc4)c(OC)c3)N[C@@](C)(C(=O)OC)[C@H]2C1=O	active: 56.2 µM
COc1ccc(NC(=S)N2CCN(S(=O)(=O)c3ccc(OC)cc3)CC2)cc1	inconclusive: 70.8 µM [inhibitor, single point]
Cc1ccc(C2C=NN(c3ccccc3)C2=O)cc1 (stereo not given)	inconclusive: 89.1 µM [inhibitor, single point]
N#C/C(=C/c1ccc(OCc2ccc(C(=O)O)cc2)c(Br)c1)c1cccc(F)c1	inconclusive: 17.8 µM [inhibitor, full curve]
CNC(=S)N1N=C(c2ccc(C)cc2)CC1c1cc(OC)ccc1OC (stereo not given)	inconclusive: 25.1 µM [inhibitor, full curve]
COc1ccc(OC)c(S(=O)(=O)Nc2cc3c4c(c2)CC(=O)N4CCC3)c1	inactive
CCCNc1ccc(C(=O)OCC)cc1[N+](=O)[O-]	inconclusive: 39.8 µM [inhibitor, partial curve]
CCOC(=O)c1cc2c(nc1N)CCCC2	inactive
O=C(N/N=C/c1sc(N2CCOCC2)nc1-c1ccccc1)c1ccc(O)cc1	inconclusive: 70.8 µM [inhibitor, single point]
CN(C)S(=O)(=O)c1cccc(-n2sc3ccccc3c2=O)c1	active: 4.47 µM
CC(C)COc1ccc(C(=O)CCN2CCCCC2)cc1	inactive
C=CCn1c(-c2ccoc2C)n[nH]c1=S	inconclusive: 89.1 µM [inhibitor, single point]
COC(=O)c1ccccc1NC(=O)C/C(C)=N/NC(=O)Cc1ccc(Cl)cc1	inconclusive: 89.1 µM [inhibitor, single point]
O=C(COC(=O)c1ccccn1)c1cccc(Br)c1	active: 17.8 µM
